Some of the results follow. No stated cut-off is given here; in the data, active = 3.2 or more and inactive = the rest. Most of these values are background signal.
What was measured:
Assay in all cases: enrichment score (SH2-bound / input frequency) (ratio); bacterial display of known human phosphotyrosine sites (pTyr-Var adds point mutants) read by sequencing; higher = stronger binding; tyrosines were phosphorylated by kinases first
Settings in all cases: peptide library: pTyr-Var
SHP2 C-SH2 domain E139D = target: SHP2 C-SH2 domain E139D
[1] = target: SHP2 C-SH2 domain wild-type
SHP2 N-SH2 domain L43F = target: SHP2 N-SH2 domain L43F
SHP2 N-SH2 domain T42A = target: SHP2 N-SH2 domain T42A
SHP2 N-SH2 domain T52S = target: SHP2 N-SH2 domain T52S
[2] = target: SHP2 N-SH2 domain wild-type
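Further: displayed peptides selected on beads carrying the immobilized SH2 domain, with library peptides lacking any tyrosine serving as negative controls.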

Binder	enrichment score (SHP2 C-SH2 domain E139D)	enrichment score [1]	enrichment score (SHP2 N-SH2 domain L43F)	enrichment score (SHP2 N-SH2 domain T42A)	enrichment score (SHP2 N-SH2 domain T52S)	enrichment score [2]
EEVGIYRMSGV [BCR_Y1089_V1091M]	inactive: 0.727	inactive: 0.562	inactive: 0.656	inactive: 0.6	inactive: 0.524	inactive: 0.63
IHKEFYDGLFP [BCR_Y561]	inactive: 0.846	inactive: 1.2	inactive: 1.05	inactive: 0.931	inactive: 1.27	inactive: 1.19
GKTQQYECKWY [BCR_Y751_D752E]	inactive: 0.701	inactive: 0.76	inactive: 0.692	inactive: 0.624	inactive: 0.619	inactive: 0.906
VVSMNYRVGAL [BCHE_Y174]	inactive: 1.25	inactive: 0.968	inactive: 1.21	inactive: 1.23	inactive: 1.14	inactive: 0.951
SKKVRYVVSKA [BARD1_Y156]	inactive: 1.06	inactive: 1.2	inactive: 0.93	inactive: 1.05	inactive: 1.22	inactive: 1.18
RTLIRYANLSN [BEST1_Y131_G135S]	inactive: 2.14	active: 3.95	active: 3.96	active: 9.21	active: 5.37	inactive: 1.77
LKETGYVVERP [BCLAF1_Y466]	inactive: 0.784	inactive: 0.677	inactive: 0.849	inactive: 0.792	inactive: 0.847	inactive: 0.906
NRLTDYYEPLL [BBS10_Y536]	inactive: 1.03	inactive: 0.827	inactive: 0.861	inactive: 0.779	inactive: 1.02	inactive: 1.03
ANLAKYGNPNE [BCHE_Y505_F502L]	inactive: 0.698	inactive: 0.675	inactive: 0.679	inactive: 0.453	inactive: 0.573	inactive: 0.792
LIHLHYIRKDF [BBS4_Y43_YF]	active: 3.83	active: 3.61	active: 4.07	active: 3.21	active: 3.55	active: 4.28
RREWFYEVIIA [BACE1_Y260_V265A_YF]	inactive: 0.281	inactive: 0.279	inactive: 0.312	inactive: 0.186	inactive: 0.154	inactive: 0.133
HYMELYDLNRD [BBS2_Y648_R643H]	inactive: 1.09	inactive: 1.06	active: 3.86	active: 4.86	active: 3.59	inactive: 0.938
RREWYYEVIIV [BACE1_Y260]	inactive: 0.258	inactive: 0.249	inactive: 0.243	inactive: 0.271	inactive: 0.331	inactive: 0.225
WRPFGYPRCRR [BCS1L_Y181_R184C]	inactive: 0.193	inactive: 0.221	inactive: 0.19	inactive: 0.183	inactive: 0.276	inactive: 0.192
PGNIVYSSLCG [BCOR_Y90]	inactive: 1.43	inactive: 1.52	inactive: 1.25	inactive: 2.25	inactive: 1.13	inactive: 1.42
KVPELYEIHKE [BCR_Y554]	inactive: 0.877	inactive: 0.765	inactive: 0.814	inactive: 0.754	inactive: 0.77	inactive: 0.799
LIHLHYIRRDF [BBS4_Y43_K46R_YF]	inactive: 1.49	inactive: 1.16	inactive: 1.18	inactive: 1.12	inactive: 1.48	inactive: 1.32
QLPRGYISIPV [BAG3_Y205]	inactive: 0.887	inactive: 0.846	inactive: 0.631	inactive: 0.853	inactive: 0.815	inactive: 0.733
VDTGVYAVPPP [BCAR1_Y410_S407T]	inactive: 0.508	inactive: 0.59	inactive: 0.585	inactive: 0.633	inactive: 0.601	inactive: 0.873

Binder	enrichment score (SHP2 C-SH2 domain E139D)	enrichment score [1]	enrichment score (SHP2 N-SH2 domain L43F)	enrichment score (SHP2 N-SH2 domain T42A)	enrichment score (SHP2 N-SH2 domain T52S)	enrichment score [2]
NRLTDYFELLL [BBS10_Y536_P539L_YF]	inactive: 2.43	inactive: 2.47	inactive: 2.01	inactive: 2.61	inactive: 2.48	inactive: 2.57
IHTEFYDGLFP [BCR_Y561_K558T]	inactive: 1.23	inactive: 0.939	inactive: 1.3	inactive: 0.815	inactive: 1.2	inactive: 1.02
NRLTDYYELLL [BBS10_Y536_P539L]	inactive: 1.51	inactive: 1.27	inactive: 1.28	inactive: 1.41	inactive: 1.48	inactive: 1.35
ANFAKYGNPNE [BCHE_Y505]	inactive: 0.655	inactive: 0.453	inactive: 0.491	inactive: 0.475	inactive: 0.588	inactive: 0.697
LMIKEYLTKEL [BAG3_Y457_E455K]	inactive: 1.83	inactive: 1.22	inactive: 1.27	inactive: 1.16	inactive: 1.31	inactive: 1.24
YIRRDYEACKA [BBS4_Y48_K46R]	inactive: 0.446	inactive: 0.329	inactive: 0.397	inactive: 0.361	inactive: 0.295	inactive: 0.381
EEEFFYEKAIL [BCCIP_Y257]	inactive: 0.812	inactive: 0.712	inactive: 0.779	inactive: 0.743	inactive: 0.924	inactive: 0.829
NALAQYQEMEK [BBS4_Y395]	inactive: 0.43	inactive: 0.466	inactive: 0.554	inactive: 0.481	inactive: 0.667	inactive: 0.608
QLRPGYIPIPV [BAG3_Y93]	inactive: 0.792	inactive: 0.599	inactive: 0.801	inactive: 0.678	inactive: 0.885	inactive: 1
AGRSGYDNREI [BCL2_Y9_T7S]	inactive: 0.519	inactive: 0.608	inactive: 0.61	inactive: 0.538	inactive: 0.556	inactive: 0.702
QLPRGYISILV [BAG3_Y205_P209L]	inactive: 0.783	inactive: 1.24	inactive: 1.4	inactive: 1.45	inactive: 1.67	inactive: 1.09
TMKSRYMELFD [BBS2_Y644_YF]	inactive: 1.09	inactive: 1	inactive: 1.53	active: 4.08	inactive: 1.59	inactive: 0.961
LGNIVYSSLCG [BCOR_Y90_P85L]	inactive: 1.28	inactive: 1.56	inactive: 1.41	inactive: 1.75	inactive: 1.22	inactive: 1.43
FIRRDYEACKA [BBS4_Y48_K46R_YF]	inactive: 0.692	inactive: 0.417	inactive: 0.406	inactive: 0.467	inactive: 0.576	inactive: 0.585
HKETGYVVERP [BCLAF1_Y466_L461H]	inactive: 0.733	inactive: 0.829	inactive: 0.753	inactive: 0.774	inactive: 0.911	inactive: 0.882
WRPFGYPCRRR [BCS1L_Y181_R183C]	inactive: 0.226	inactive: 0.263	inactive: 0.261	inactive: 0.255	inactive: 0.281	inactive: 0.274
DDSSAYCSVDE [BCKDHA_Y345_R346C]	inactive: 0.463	inactive: 0.511	inactive: 0.368	inactive: 0.577	inactive: 0.583	inactive: 0.555
DDSSAYRSVDE [BCKDHA_Y345]	inactive: 0.45	inactive: 0.403	inactive: 0.422	inactive: 0.476	inactive: 0.368	inactive: 0.663

— the supplement of paper PMC10369915
